Variants at the floor of the assay are shown more often than the library holds them.
B1: tRNA (parent)
chain: CUCUCGGUAGCCAAGUUGGUUUAAGGCGCAAGACUUUAAUUUAUCACUACGAAAUCUUGAGAUCGGGCGUUCGACUCGCCCCCGGGAGAUUUUUUCCUCGAGCAA

Variants of: B1
Experiment: nonsense suppression (GFP-seq) (ratio to wild type); higher = more function; SUP4oc tRNA, yeast GFP reporter sort-seq
Procedure, shortened: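 Raffinose/galactose medium with 80 mg/L adenine was used to grow yeast carrying genome-integrated tRNA variants (~3% random-mutation library), RFP, and a galactose-driven GFP ochre reporter. Cells went into GFP/RFP bins, which were Illumina-sequenced, and variants with ≥100 reads and ≥30 cells were scored. Nonsense suppression (GFPSEQ) is the per-bin median GFP/RFP weighted by estimated cell share and expressed relative to the unmutated parent tRNA.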
Variant G15A A60U has a nonsense suppression of no more than 0.026. With G15A A62U C80A the nonsense suppression was no more than 0.026. G15A A74G showed a nonsense suppression of no more than 0.026. G15A A87G showed a nonsense suppression of no more than 0.026. Variant G15A C27U has a nonsense suppression of no more than 0.026. In the case of G15A C27U U63G, the nonsense suppression is reported as no more than 0.026. G15A C29A showed a nonsense suppression of no more than 0.026. In the case of G15A C64A C72A, the nonsense suppression is reported as no more than 0.026. G15A C68U gave a nonsense suppression of 0.0272. With G15A C75U A89C the nonsense suppression was no more than 0.026. For G15A C77G G85A G88U, the nonsense suppression was no more than 0.026. Variant G15A C79A has a nonsense suppression of no more than 0.026. G15A C79G C83G G84U gave a nonsense suppression of no more than 0.026. Work on G15A C79U yielded a nonsense suppression of no more than 0.026. Variant G15A C81A C82G has a nonsense suppression of no more than 0.026. In the case of G15A C82G, the nonsense suppression is reported as no more than 0.026. G15A G18C U21G U58C gave a nonsense suppression of no more than 0.026. G15A G19A A30U U63G U76C gave a nonsense suppression of no more than 0.026. Work on G15A G26U yielded a nonsense suppression of no more than 0.026. In the case of G15A G26U G59U, the nonsense suppression is reported as no more than 0.026. In the case of G15A G26U U55A, the nonsense suppression is reported as no more than 0.026. G15A G28A C56A U57G A62C G86A A87C gave a nonsense suppression of no more than 0.026. Variant G15A G28C U71G C79A has a nonsense suppression of no more than 0.026. For G15A G32U A33G C80A, the nonsense suppression was no more than 0.026. With G15A G32U G59A G61A G65U the nonsense suppression was no more than 0.026. With G15A G61A the nonsense suppression was no more than 0.026. With G15A G61C the nonsense suppression was 0.034. For G15A G67U C72G, the nonsense suppression was no more than 0.026. G15A G73C gave a nonsense suppression of no more than 0.026. In the case of G15A G78A, the nonsense suppression is reported as 0.0278. For G15A G78C, the nonsense suppression was no more than 0.026. Variant G15A U16A has a nonsense suppression of 0.0275. In the case of G15A U16C G28C, the nonsense suppression is reported as no more than 0.026. For G15A U16C G78C, the nonsense suppression was no more than 0.026. With G15A U16G G32U G67C the nonsense suppression was no more than 0.026. Work on G15A U16G U58G yielded a nonsense suppression of no more than 0.026. With G15A U17A G69U the nonsense suppression was no more than 0.026. Variant G15A U17C G84A G85U has a nonsense suppression of no more than 0.026. Work on G15A U20C yielded a nonsense suppression of no more than 0.026. In the case of G15A U20C G84C, the nonsense suppression is reported as no more than 0.026. Variant G15A U20G G25C A54U has a nonsense suppression of no more than 0.026. In the case of G15A U21A U70C, the nonsense suppression is reported as no more than 0.026. Variant G15A U21G A23C C29U A30G C75G U76C has a nonsense suppression of no more than 0.026. G15A U22C showed a nonsense suppression of 0.147. With G15A U22G G32C the nonsense suppression was no more than 0.026. G15A U22G G86C gave a nonsense suppression of no more than 0.026. For G15A U57C, the nonsense suppression was no more than 0.026. G15A U57C G59C G78A gave a nonsense suppression of no more than 0.026. G15A U57G gave a nonsense suppression of no more than 0.026. G15A U57G C79G gave a nonsense suppression of no more than 0.026. For G15A U63G C75G, the nonsense suppression was no more than 0.026. With G15A U71C the nonsense suppression was no more than 0.026. In the case of G15A U76C, the nonsense suppression is reported as 0.0394. For G15A U76G, the nonsense suppression was no more than 0.026. Work on G15C yielded a nonsense suppression of no more than 0.026. For G15C A23G G61A, the nonsense suppression was no more than 0.026. In the case of G15C A23G G73A C77U, the nonsense suppression is reported as no more than 0.026. With G15C A24C A30G A87U the nonsense suppression was no more than 0.026. Work on G15C A30U yielded a nonsense suppression of no more than 0.026. For G15C A31G U55A, the nonsense suppression was no more than 0.026. With G15C A33U the nonsense suppression was no more than 0.026. Work on G15C A33U G73U C75U yielded a nonsense suppression of no more than 0.026. G15C A54G U76A showed a nonsense suppression of no more than 0.026. Work on G15C A60C yielded a nonsense suppression of no more than 0.026. Variant G15C A62C has a nonsense suppression of no more than 0.026. With G15C A62G A87G the nonsense suppression was no more than 0.026. With G15C A62G G66U G78A A87G the nonsense suppression was no more than 0.026. In the case of G15C A62G G66U G78A A87U, the nonsense suppression is reported as no more than 0.026. Variant G15C C27A U58G G69A U71G has a nonsense suppression of no more than 0.026. G15C C27G A30C G32A C80G G86C showed a nonsense suppression of no more than 0.026. Variant G15C C27G A31C has a nonsense suppression of no more than 0.026. G15C C27U A33C showed a nonsense suppression of no more than 0.026. In the case of G15C C27U U63G, the nonsense suppression is reported as no more than 0.026. In the case of G15C C29U U63C, the nonsense suppression is reported as no more than 0.026. Variant G15C C56A has a nonsense suppression of no more than 0.026. Variant G15C C64A C77G has a nonsense suppression of no more than 0.026. In the case of G15C C64U G65U, the nonsense suppression is reported as no more than 0.026. For G15C C64U G69U G86U, the nonsense suppression was no more than 0.026. For G15C C81G, the nonsense suppression was no more than 0.026. G15C G18A A30G gave a nonsense suppression of no more than 0.026. For G15C G19A U21G, the nonsense suppression was no more than 0.026. Variant G15C G19C has a nonsense suppression of no more than 0.026. G15C G19U showed a nonsense suppression of no more than 0.026.
